Experimental data: the supplement of paper PMC11741623
The other results are listed elsewhere or left out. Interaction screen of human proteins with wild-type SARS-CoV-2 proteins by split-DHFR complementation in yeast, 1 µg/mL methotrexate. Value = fitness of the pair (three or more lineages) minus that of the viral protein without a human partner, on a scale set by negative (0) and fused positive (1) controls, mean of up to three cultures; higher = more likely to interact. Active = false discovery rate below 0.05 (one-sided t-test) in at least one culture. Nearly all pairs are not hits, and differences among them are mostly noise (correlation between cultures about 0.3); most hits were seen in one culture only. Human sequences are the Swiss-Prot entries looked up by gene name; the clone may be another isoform. NSP2 values were corrected by the authors for a growth advantage. Listed are human proteins with a hit and a random twelfth of the others.

B1: TMED10, P49755 (protein)
chain: MSGLSGPPARRGPFPLALLLLFLLGPRLVLAISFHLPINSRKCLREEIHKDLLVTGAYEISDQSGGAGGLRSHLKITDSAGHILYSKEDATKGKFAFTTEDYDMFEVCFESKGTGRIPDQLVILDMKHGVEAKNYEEIAKVEKLKPLEVELRRLEDLSESIVNDFAYMKKREEEMRDTNESTNTRVLYFSIFSMFCLIGLATWQVFYLRRFFKAKKLIE
B2: CNDP2, Q96KP4 (protein)
chain: MAALTTLFKYIDENQDRYIKKLAKWVAIQSVSAWPEKRGEIRRMMEVAAADVKQLGGSVELVDIGKQKLPDGSEIPLPPILLGRLGSDPQKKTVCIYGHLDVQPAALEDGWDSEPFTLVERDGKLYGRGSTDDKGPVAGWINALEAYQKTGQEIPVNVRFCLEGMEESGSEGLDELIFARKDTFFKDVDYVCISDNYWLGKKKPCITYGLRGICYFFIEVECSNKDLHSGVYGGSVHEAMTDLILLMGSLVDKRGNILIPGINEAVAAVTEEEHKLYDDIDFDIEEFAKDVGAQILLHSHKKDILMHRWRYPSLSLHGIEGAFSGSGAKTVIPRKVVGKFSIRLVPNMTPEVVGEQVTSYLTKKFAELRSPNEFKVYMGHGGKPWVSDFSHPHYLAGRRAMKTVFGVEPDLTREGGSIPVTLTFQEATGKNVMLLPVGSADDGAHSQNEKLNRYNYIEGTKMLAAYLYEVSQLKD
B3: C22orf13, Q96NT3 (protein)
chain: MRTEAEAAGPPLEPGDFVQLPVPVIQQLYHWDCGLACSRMVLRYLGQLDDSEFERALQKLQLTRSIWTIDLAYLMHHFGVRHRFCTQTLGVDKGYKNQSFYRKHFDTEETRVNQLFAQAKACKVLVEKCTVSVKDIQAHLAQGHVAIVLVNSGVLHCDLCSSPVKYCCFTPSGHHCFCRTPDYQGHFIVLRGYNRATGCIFYNNPAYADPGMCSTSISNFEEARTSYGTDEDILFVYLDS
B4: HTRA4, P83105 (protein)
chain: MIRPQLRTAGLGRCLLPGLLLLLVPVLWAGAEKLHTQPSCPAVCQPTRCPALPTCALGTTPVFDLCRCCRVCPAAEREVCGGAQGQPCAPGLQCLQPLRPGFPSTCGCPTLGGAVCGSDRRTYPSMCALRAENRAARRLGKVPAVPVQWGNCGDTGTRSAGPLRRNYNFIAAVVEKVAPSVVHVQLWGRLLHGSRLVPVYSGSGFIVSEDGLIITNAHVVRNQQWIEVVLQNGARYEAVVKDIDLKLDLAVIKIESNAELPVLMLGRSSDLRAGEFVVALGSPFSLQNTATAGIVSTKQRGGKELGMKDSDMDYVQIDATINYGNSGGPLVNLDGDVIGVNSLRVTDGISFAIPSDRVRQFLAEYHEHQMKGKAFSNKKYLGLQMLSLTVPLSEELKMHYPDFPDVSSGVYVCKVVEGTAAQSSGLRDHDVIVNINGKPITTTTDVVKALDSDSLSMAVLRGKDNLLLTVIPETIN

What follows are binders tested against SARS-CoV-2 E (assay: yeast fitness gain over the viral ORF with no human partner (scaled fitness); higher = more likely to interact).
Procedure: (§1)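 Split mouse DHFR complementation in pooled diploid yeast: human ORFeome clones carry one fragment and viral ORFs the other; barcoded lineages compete in 1 µg/mL methotrexate and fitness is read by barcode sequencing in up to three cultures.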

| Binder | yeast fitness gain |
| --- | --- |
| B1 | inactive: -0.109 |
| B2 | inactive: -0.0245 |
| B3 | inactive: -0.297 |
| B4 | inactive: -0.00438 |

The binders below were run against SARS-CoV-2 M in the same assay as above.
Procedure: as §1

| Binder | yeast fitness gain |
| --- | --- |
| B1 | inactive: -0.0339 |
| B2 | inactive: 0.0454 |
| B3 | inactive: 0.0585 |
| B4 | inactive: 0.0435 |

Each binder was assayed against SARS-CoV-2 N in the same assay as above.
Procedure: as §1

| Binder | yeast fitness gain |
| --- | --- |
| B1 | inactive: -0.287 |
| B2 | inactive: 0.0411 |
| B3 | inactive: -0.0396 |

What follows are binders tested against SARS-CoV-2 NSP1 in the same assay as above.
Procedure: as §1

| Binder | yeast fitness gain |
| --- | --- |
| B1 | inactive: 0.0729 |
| B2 | inactive: 0.152 |
| B3 | inactive: 0.0509 |

These binders were tested against SARS-CoV-2 NSP10 in the same assay as above.
Procedure: as §1

| Binder | yeast fitness gain |
| --- | --- |
| B1 | inactive: 0.018 |
| B2 | inactive: 0.00824 |
| B3 | inactive: -0.0545 |
| B4 | inactive: 0.0228 |

The binders below were run against SARS-CoV-2 NSP12 in the same assay as above.
Procedure: as §1

| Binder | yeast fitness gain |
| --- | --- |
| B1 | inactive: -0.0204 |
| B2 | inactive: 0.0502 |
| B4 | inactive: -0.246 |

These binders were tested against SARS-CoV-2 NSP13 in the same assay as above.
Procedure: as §1

| Binder | yeast fitness gain |
| --- | --- |
| B1 | inactive: -0.0386 |
| B2 | inactive: -0.0703 |
| B4 | inactive: 0.0449 |

Each binder was assayed against SARS-CoV-2 NSP15 in the same assay as above.
Procedure: as §1

| Binder | yeast fitness gain |
| --- | --- |
| B1 | inactive: -0.165 |
| B2 | inactive: 0.0365 |
| B3 | inactive: 0.0169 |

The binders below were run against SARS-CoV-2 NSP16 in the same assay as above.
Procedure: as §1

| Binder | yeast fitness gain |
| --- | --- |
| B1 | inactive: 0.0179 |
| B2 | inactive: 0.0271 |
| B3 | inactive: 0.0788 |

Each binder was assayed against SARS-CoV-2 NSP2 in the same assay as above.
Procedure: as §1

| Binder | yeast fitness gain |
| --- | --- |
| B1 | inactive: -0.0785 |
| B2 | inactive: 0.0826 |
| B4 | inactive: 0.0397 |

The binders below were run against SARS-CoV-2 NSP5 in the same assay as above.
Procedure: as §1

| Binder | yeast fitness gain |
| --- | --- |
| B1 | inactive: -0.0474 |
| B2 | inactive: -0.0192 |
| B3 | inactive: -0.0126 |
| B4 | inactive: -0.0763 |

The binders below were run against SARS-CoV-2 NSP6 in the same assay as above.
Procedure: as §1

| Binder | yeast fitness gain |
| --- | --- |
| B1 | inactive: 0.0305 |
| B2 | inactive: -0.0146 |

The binders below were run against SARS-CoV-2 NSP7 in the same assay as above.
Procedure: as §1

| Binder | yeast fitness gain |
| --- | --- |
| B1 | inactive: -0.114 |
| B2 | inactive: -0.067 |

These binders were tested against SARS-CoV-2 NSP8 in the same assay as above.
Procedure: as §1

| Binder | yeast fitness gain |
| --- | --- |
| B1 | inactive: -0.0128 |
| B2 | inactive: -0.0424 |
| B4 | inactive: -0.126 |

These binders were tested against SARS-CoV-2 NSP9 in the same assay as above.
Procedure: as §1

| Binder | yeast fitness gain |
| --- | --- |
| B1 | inactive: 0.112 |
| B2 | inactive: 0.0124 |
| B3 | inactive: 0.00245 |

What follows are binders tested against SARS-CoV-2 ORF10 in the same assay as above.
Procedure: as §1

| Binder | yeast fitness gain |
| --- | --- |
| B1 | inactive: 0.0485 |
| B2 | inactive: -0.0672 |
| B4 | inactive: 0.12 |

These binders were tested against SARS-CoV-2 ORF3A in the same assay as above.
Procedure: as §1

| Binder | yeast fitness gain |
| --- | --- |
| B1 | inactive: -0.0315 |
| B2 | inactive: -0.145 |
| B3 | inactive: 0.0632 |

What follows are binders tested against SARS-CoV-2 ORF3B in the same assay as above.
Procedure: as §1

| Binder | yeast fitness gain |
| --- | --- |
| B1 | inactive: -0.00517 |
| B2 | inactive: 0.0522 |
| B4 | inactive: 0.00824 |

Each binder was assayed against SARS-CoV-2 ORF6 in the same assay as above.
Procedure: as §1

| Binder | yeast fitness gain |
| --- | --- |
| B1 | inactive: -0.0127 |
| B2 | inactive: -0.00721 |
| B4 | inactive: -0.234 |

These binders were tested against SARS-CoV-2 ORF7A in the same assay as above.
Procedure: as §1

| Binder | yeast fitness gain |
| --- | --- |
| B1 | inactive: 0.257 |
| B2 | inactive: 0.0126 |
| B4 | inactive: -0.315 |

What follows are binders tested against SARS-CoV-2 ORF7B in the same assay as above.
Procedure: as §1

| Binder | yeast fitness gain |
| --- | --- |
| B1 | active: 0.314 |
| B2 | inactive: -0.05 |
| B4 | inactive: -0.00108 |

Each binder was assayed against SARS-CoV-2 ORF8 in the same assay as above.
Procedure: as §1

| Binder | yeast fitness gain |
| --- | --- |
| B1 | inactive: -0.00243 |
| B2 | inactive: 0.0321 |
| B3 | inactive: -0.00235 |
| B4 | inactive: 0.0203 |

The binders below were run against SARS-CoV-2 ORF9B in the same assay as above.
Procedure: as §1

| Binder | yeast fitness gain |
| --- | --- |
| B1 | inactive: 0.000988 |
| B2 | inactive: -0.013 |
| B4 | inactive: 0.0291 |

The binders below were run against SARS-CoV-2 ORF9Bwu (the 73-codon ORF) in the same assay as above.
Procedure: as §1

| Binder | yeast fitness gain |
| --- | --- |
| B1 | inactive: -0.0199 |
| B3 | inactive: 0.0104 |
| B4 | inactive: -0.0402 |

What follows are binders tested against SARS-CoV-2 S in the same assay as above.
Procedure: as §1

| Binder | yeast fitness gain |
| --- | --- |
| B1 | inactive: 0.0399 |
| B2 | inactive: -0.0457 |
| B3 | inactive: -0.0354 |
| B4 | inactive: -0.243 |

What follows are binders tested against SARS-CoV-2 NSP14 in the same assay as above.
Procedure: as §1

| Binder | yeast fitness gain |
| --- | --- |
| B3 | inactive: -0.0245 |

The binders below were run against SARS-CoV-2 NSP4 in the same assay as above.
Procedure: as §1

| Binder | yeast fitness gain |
| --- | --- |
| B3 | inactive: 0.109 |
